By IC50 is meant the dose at which the fit gives 50% viability; fits outside the tested doses are given as limits. The AUC spans the tested range (256-fold, ending at the top dose) of the same fit; the more sensitive the line, the further below 1. For part of these data: The top dose, if marked as inferred, comes from the curve model; the source does not state it.
Assays:
Experiment in all cases: Viability of human cancer cell lines after 72 h of drug (GDSC screen)
[1] = compound: CNC(=O)c1ccccc1Sc1ccc2c(/C=C/c3ccccn3)n[nH]c2c1 [Axitinib]; conditions: top dose 2 µM
Description: (§1)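 Human cancer cell lines in 384-well plates, medium with 10% serum, drug for 72 h over a 256-fold dose range (nine 2-fold or five 4-fold steps up to the top dose). Adherent lines were fixed and stained with the nucleic acid dye Syto60, suspension lines read with resazurin; signal relative to control wells, capped at 0 and 100%. One two-parameter sigmoid per drug and line, fitted in a mixed model over all curves with the slope shared within a line.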

[2] = compound: O=C(CCCCCCC(=O)Nc1ccccc1)NO [Vorinostat]; conditions: top dose 10 µM
Description: as §1

[3] = compound: CC(C)(C)c1nc(-c2cccc(NS(=O)(=O)c3c(F)cccc3F)c2F)c(-c2ccnc(N)n2)s1 [Dabrafenib]; conditions: top dose 10 µM
Description: as §1

[4] = compound: CCc1c2c(nc3ccc(O)cc13)-c1cc3c(c(=O)n1C2)COC(=O)[C@]3(O)CC [SN-38]; conditions: top dose 0.05 µM; top dose inferred
Description: as §1

[5] = compound: CN(Cc1cnc2nc(N)nc(N)c2n1)c1ccc(C(=O)N[C@@H](CCC(=O)O)C(=O)O)cc1 [Methotrexate]; conditions: top dose 0.2 µM
Description: as §1

## OE33 (oesophagus, adherent)
[1]
  AUC: 0.976
  IC50: > 2000 nM
[2]
  AUC: 0.817
  IC50: 7000 nM
[3]
  AUC: 0.975
  IC50: > 10000 nM
[4]
  AUC: 0.812
  IC50: 33.3 nM
[5]
  AUC: 0.892
  IC50: > 200 nM

## TE-5 (oesophagus, adherent)
[1]
  AUC: 0.974
  IC50: > 2000 nM
[2]
  AUC: 0.803
  IC50: 5850 nM
[3]
  AUC: 0.982
  IC50: > 10000 nM
[4]
  AUC: 0.546
  IC50: 4.26 nM
[5]
  AUC: 0.968
  IC50: > 200 nM

## ASH-3 (thyroid, adherent)
[1]
  AUC: 0.916
  IC50: > 2000 nM
[2]
  AUC: 0.815
  IC50: 5490 nM
[3]
  AUC: 0.896
  IC50: > 10000 nM
[4]
  AUC: 0.755
  IC50: 16.9 nM
[5]
  AUC: 0.986
  IC50: > 200 nM

## H2795 (mesothelioma, adherent)
[1]
  AUC: 0.757
  IC50: 678 nM
[2]
  AUC: 0.669
  IC50: 1830 nM
[3]
  AUC: 0.965
  IC50: > 10000 nM
[4]
  AUC: 0.608
  IC50: 6.16 nM
[5]
  AUC: 0.79
  IC50: 87.5 nM

## P12-ICHIKAWA (T-cell lymphoblastic leukaemia, suspension)
[1]
  AUC: 0.934
  IC50: > 2000 nM
[2]
  AUC: 0.55
  IC50: 828 nM
[3]
  AUC: 0.994
  IC50: > 10000 nM
[4]
  AUC: 0.433
  IC50: 2.14 nM
[5]
  AUC: 0.628
  IC50: 25.9 nM

## KYAE-1 (oesophagus, suspension)
[1]
  AUC: 0.973
  IC50: > 2000 nM
[2]
  AUC: 0.571
  IC50: 1000 nM
[3]
  AUC: 0.976
  IC50: > 10000 nM
[4]
  AUC: 0.93
  IC50: > 50 nM
[5]
  AUC: 0.948
  IC50: > 200 nM

## NMC-G1 (glioma, adherent)
[1]
  AUC: 0.98
  IC50: > 2000 nM
[2]
  AUC: 0.864
  IC50: > 10000 nM
[3]
  AUC: 0.394
  IC50: 299 nM
[4]
  AUC: 0.541
  IC50: 4.13 nM
[5]
  AUC: 0.977
  IC50: > 200 nM

## NCI-H1648 (lung adenocarcinoma, adherent)
[1]
  AUC: 0.96
  IC50: > 2000 nM
[2]
  AUC: 0.793
  IC50: 4870 nM
[3]
  AUC: 0.978
  IC50: > 10000 nM
[4]
  AUC: 0.783
  IC50: 22.4 nM
[5]
  AUC: 0.98
  IC50: > 200 nM

## Becker (glioma, adherent)
[1]
  AUC: 0.932
  IC50: > 2000 nM
[2]
  AUC: 0.791
  IC50: 5140 nM
[3]
  AUC: 0.981
  IC50: > 10000 nM
[4]
  AUC: 0.542
  IC50: 4.12 nM
[5]
  AUC: 0.972
  IC50: > 200 nM

## COLO-783 (melanoma, adherent)
[1]
  AUC: 0.948
  IC50: > 2000 nM
[2]
  AUC: 0.671
  IC50: 1830 nM
[3]
  AUC: 0.225
  IC50: 102 nM
[4]
  AUC: 0.858
  IC50: 38.6 nM
[5]
  AUC: 0.921
  IC50: > 200 nM

## BB49-HNC (head and neck, adherent)
[1]
  AUC: 0.966
  IC50: > 2000 nM
[2]
  AUC: 0.882
  IC50: > 10000 nM
[3]
  AUC: 0.552
  IC50: 916 nM
[4]
  AUC: 0.565
  IC50: 5.04 nM
[5]
  AUC: 0.972
  IC50: > 200 nM

## KYSE-70 (oesophagus, adherent)
[1]
  AUC: 0.987
  IC50: > 2000 nM
[2]
  AUC: 0.786
  IC50: 4730 nM
[3]
  AUC: 0.984
  IC50: > 10000 nM
[4]
  AUC: 0.906
  IC50: > 50 nM
[5]
  AUC: 0.967
  IC50: > 200 nM
